Assay results taken from the RNAGym collection of RNA variant scans (doi:10.7554/elife.90254).
Read counts are not given, so values of variants with three or more changes are uncertain.

B1: OR4K15 (parent)
chain: GUUAACGGUCAUAGGCCAUGGAAACUAGGAGCACCAUUUCGCUGCCAGUGAAGAAAUGAACAAAGAAAAUCUGGGCCAGGCAGGCAUCAAAAGAAAUAGUCUUGCGCUCAACCAGAAAGUCUGUAAUCAUUUUAAGGGUA

Variants of: B1
Assay: self-cleavage, relative activity (ratio to wild type); higher = more cleavage; in vitro, sequencing; the parent is a self-cleaving ribozyme

Variant | self-cleavage
A33G U49C A114G | 0.14
U12C A117G A134G | 2.01
A68G U102A U108C | 0
A51G A56G A111U A125G | 0.01
A13C A22G U39C U49A | 1.21
G7U U9C A51U A78G A98G U122A | 0.06
U49C A60G U127C | 0.53
C16U A23G U43A U49C U57A | 0.17
U9A A24G A33C A95G | 0.87
U2A G20U A56G A110C | 0.32
U19C U37C A82U | 0.27
A59G U100C A111G U122A | 0
A78C G83A U102C U139C | 0.25
A5C U9C A11G A56G U130C | 0.74
U12C A22G A30G U39C A67G | 1.01
U100A C112U U131C | 0.01
A54U A64U A67G A78U U97C | 0.14
A64U A69C U70C A78G U100C U124C | 0.16
U3A A5C U39C A56G G115U | 0.09
U12A U39C A125U | 0.59
A60G A63G A116G | 0.39

Variant | self-cleavage
U43A A51G A55G A78G U133C | 0.28
A18U A116G U120C U131C | 0.09
U9C A68G A89C A116G | 0.04
A24U A95U A98G A116U | 0.13
A27G U43G A51G A63G U108C | 0.04
A27U G29U U37C A69G A89G G137U | 1.49
A18G U87A U100C U108A U132A | 0
U57C A95G U124C | 1.5
U9A A51G U70C A96G U120G | 0.3
A24G U72C A95G | 0.26
A23C A111G A125G | 0.01
G41U A62U U130C | 0.43
A30G A47U G65A A118G | 0.34
A33G A89U A110G U132A | 0.05
U37C A51G A140G | 1.61
A22U A23G U72A G79U U100A A116U U122C U139A | 0.01
A52G C81U A96U U103C | 0.19
A55G C77U U130C | 1.23
A47U A56G A135G | 0.54
A24C A33G A55G A67G | 0.88
U2C U38G A47G | 0.59

Variant | self-cleavage
A23U A66G A68G A91G | 0.82
A54G A60G G80A U108C U120C | 0.01
A5G A23U A95G A111G | 0.06
A18G G106C A111G U122C | 0.01
U38A U72C A94G A111G | 0.01
A22G A111G U131C | 0.06
A67G A110G U120C | 0.13
U38C A116C U139C | 0.15
A11G A59G A62U A67G A116G | 0.28
U39C A54G A64G | 0.63
A27G U49C G74U A116G U132C | 0.11
A24G U100A U131C | 0.73
A18G C42U A59C | 0.98
G1A A51G C61U U87C U120C | 1.28
U43A A51G A94G | 1.96
A52G A67G U131C | 1.91
U87C U132A A140U | 1.66
U12C A94G U122A | 1.39
A18G A68U U70C | 0.41
A24G A52C A54G | 0.94
A54C A78U A86G | 0.11

Variant | self-cleavage
U72A A91G A92G A117G | 0.1
A36G U108C U132C | 0.01
A18G A86G A117G | 2.03
A64G A116G U122C | 1.16
U9A A60G A89G | 1.27
A18U U39C A56G U130C | 1.53
A54G A59G U124C | 0.57
G14A A54G A110G | 0.12
U39C A78U U132G | 0.19
A54G A55G A68G A90G | 1.81
A22U A90G U102C A116G | 1.4
A36U C45U A69G U127G | 0.71
U102G A118G U122C | 0.26
A18G A94G U100C C113U | 0.13
A51G A68G U72C A94G U122C | 0.07
A52G A54G U133C A134G | 0.91
G1A U38C U70A A117G | 0.55
C42U U102A A140G | 0.48
A5G A52G A54G | 1.23
A18U A54G A59G U87C A118G | 0.39
A33G A36U U38C A67G | 1.1
